Reference: patent US20240309052A1 (SUNNYBROOK RESEARCH INSTITUTE, published 2024)

T1: recombinant mouse CD226-his (50232-M08H; SinoBiological) (mouse, UniProt Q8K4F0 19-254)
T1 construct: Bought protein, captured on an anti-histidine chip for SPR; also called mCD226-his; mCD226; not shown: His tag
T1 sequence (looked up): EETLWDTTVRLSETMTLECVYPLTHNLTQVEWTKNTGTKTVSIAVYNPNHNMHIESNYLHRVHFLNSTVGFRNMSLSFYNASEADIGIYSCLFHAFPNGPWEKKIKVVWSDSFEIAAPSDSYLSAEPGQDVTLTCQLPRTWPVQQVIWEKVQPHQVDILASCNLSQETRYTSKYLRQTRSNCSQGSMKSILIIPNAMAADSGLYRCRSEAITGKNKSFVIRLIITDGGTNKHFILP

T2: recombinant mouse CD96-his (788806; Biolegend) (mouse, UniProt Q3U0X8 22-536, limits assumed)
T2 construct: Bought protein, captured on an anti-histidine chip for SPR; also called mCD96-his; mCD96; not shown: His tag
T2 sequence (looked up): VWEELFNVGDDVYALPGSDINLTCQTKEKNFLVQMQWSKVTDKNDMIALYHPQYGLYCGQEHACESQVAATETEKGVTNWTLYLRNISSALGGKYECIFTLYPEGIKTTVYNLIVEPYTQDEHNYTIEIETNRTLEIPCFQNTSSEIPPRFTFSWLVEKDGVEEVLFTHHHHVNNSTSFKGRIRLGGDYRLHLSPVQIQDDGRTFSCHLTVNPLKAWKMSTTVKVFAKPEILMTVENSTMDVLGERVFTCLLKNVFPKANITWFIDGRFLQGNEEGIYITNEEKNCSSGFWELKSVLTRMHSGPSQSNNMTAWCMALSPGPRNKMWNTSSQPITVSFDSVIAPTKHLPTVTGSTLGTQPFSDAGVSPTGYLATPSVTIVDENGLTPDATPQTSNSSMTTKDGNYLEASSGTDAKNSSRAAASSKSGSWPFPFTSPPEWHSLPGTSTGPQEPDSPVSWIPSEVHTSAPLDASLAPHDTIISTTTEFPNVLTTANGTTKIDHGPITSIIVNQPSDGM

T3: recombinant mouse TIGIT-Fc-his (771808; Biolegend) (mouse, UniProt P86176 29-148, limits assumed)
T3 construct: Bought protein, captured on an anti-histidine chip for SPR; also called mTIGIT-Fc-his; mTIGIT; not shown: Fc part; His tag
T3 sequence (looked up): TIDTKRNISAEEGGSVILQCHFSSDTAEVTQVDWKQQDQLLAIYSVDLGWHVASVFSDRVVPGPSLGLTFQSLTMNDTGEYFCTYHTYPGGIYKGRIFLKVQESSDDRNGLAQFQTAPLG

T4: mouse TIGIT on stimulated primary murine CD4+ and CD8+ T-cells (mouse, UniProt P86176 29-249)
T4 construct: whole, on cells; The cells are primary T-cells that also carry CD226; also called TIGIT on murine T cells
T4 sequence (looked up): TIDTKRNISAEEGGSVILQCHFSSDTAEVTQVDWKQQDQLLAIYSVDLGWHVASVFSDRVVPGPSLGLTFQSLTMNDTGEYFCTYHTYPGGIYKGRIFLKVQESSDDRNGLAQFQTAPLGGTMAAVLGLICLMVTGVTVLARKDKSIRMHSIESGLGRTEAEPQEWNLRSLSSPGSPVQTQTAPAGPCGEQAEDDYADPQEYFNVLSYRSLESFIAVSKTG


Columns and labels:
[1] = biological target: T1, recombinant mouse CD226-his …; experiment: SPR (Biacore T200), single-cycle kinetics, mCD226-his captured by anti-His, 1:1 Langmuir fit
Description: (§1) Surface Plasmon Resonance: Binding kinetics of vdPVR-Fc, mutant vdPVR-Fc and PVR-Fc (786608; Biolegend) proteins to mTIGIT-Fc-his (771808; Biolegend), mCD226-his (50232-M08H; SinoBiological) and mCD96-his (788806; Biolegend) were derived from single cycle kinetic analyses by surface plasmon resonance (SPR) using a Biacore T200 (Cytiva). Briefly, anti-histidine antibodies were immobilized on a CM5 chip (29149604; Cytiva) using the His capture kit (28995056; Cytiva) following manufacturer's protocol.

[2] = biological target: T2, recombinant mouse CD96-his (788806; …); experiment: SPR (Biacore T200), single-cycle kinetics, mCD96-his captured by anti-His, 1:1 Langmuir fit
Description: as §1

[3] = biological target: T3, recombinant mouse TIGIT-Fc-his (771808; …); experiment: SPR (Biacore T200), single-cycle kinetics, mTIGIT-Fc-his captured by anti-His, 1:1 Langmuir fit
Description: as §1

[4] = biological target: T4, mouse TIGIT on stimulated primary …; experiment: flow cytometry on ConA-stimulated mouse splenocytes gated on CD4+ and CD8+ T-cells, detected with PE anti-human IgG Fc [bottom panels]
Method: Cell binding to mouse T cells: Binding of vdPVR-Fc and mutant vdPVR-Fc to primary murine CD4⁺ and CD8⁺ T-cells were assessed using flow cytometry. Mouse splenocytes were treated with red blood cell lysis buffer and cultured with about 2 μg/mL Concanavalin A (C5275; MilliporeSigma) for 2 days. Murine splenocytes were harvested, had their Fc receptors blocked with Mouse TruStain FcX (101319; BioLegend) and were incubated with about 2.5 μg of vdPVR-Fc or mutant vdPVR-Fc for about 1 h at about 4° C. Cells were then washed and PE anti-human IgG Fc (409304; Biolegend) was added to detect vdPVR-Fc and mutant PVR-Fc binding. Additionally, cells were simultaneously stained with a cocktail of Alexa Flour 700 anti-CD3 (100216; BioLegend), APC anti-CD8 (100711; BioLegend), and PE/Cy7 anti-CD4 (100422;BioLegend) for about 30 minutes at about 4° C. Cells were subsequently washed and analysed by flow cytometry (BD LSR II, Becton Dickinson; Center for Scanning Microscopy and Flow Cytometry; Sunnybrook Research Institute) with DAPI (D1306; Thermo Fisher Scientific) used to exclude dead cells. To confirm the specificity of vdPVR-Fc to TIGIT, competition cell binding experiments were performed with mouse anti-TIGIT antibody (clone 1B4; Absolute Antibody). Mouse splenocytes were incubated with vdPVR-Fc as described above. […]

Binder	Kd [1]	koff [1]	kon [1]	Kd [2]	Kd [3]	kon [3]	binding result [4]
vdPVR-Fc (murine IgV-domain PVR-Fc fusion construct) (Fc fusion, Secreted from Expi293F cells, purified on protein A, runs as a dimer (about 94 kDa); also called IgV PVR-Fc; truncated IgV-Fc construct) DIRVLVPYNSTGVLGGSTTLHCSLTSNENVTITQITWMKKDSGGSHALVAVFHPKKGPNIKEPERVKFLAAQQDLRNASLAISNLSVEDEGIYECQIATFPRGSRSTNAWLKVQARPKNIEGRM[left out - human IgG1 Fc and a few adjoining residues]	0.69 nM	0.00184 s⁻¹	2.67e+06 M⁻¹ s⁻¹	1.72 nM	2.25 nM	2.92e+07 M⁻¹ s⁻¹	
mutant vdPVR-Fc (Q63R and F128R in the PVR IgV ECD) (Fc fusion, Made like vdPVR-Fc except for the two point mutations; Negative control; also called mutant PVR-Fc) DIRVLVPYNSTGVLGGSTTLHCSLTSNENVTITRITWMKKDSGGSHALVAVFHPKKGPNIKEPERVKFLAAQQDLRNASLAISNLSVEDEGIYECQIATRPRGSRSTNAWLKVQARPKNIEGRM[left out - human IgG1 Fc and a few adjoining residues]							no binding
